Measurements taken from the supplement of paper PMC4604168 (melanoma cell lines).
The other results are listed elsewhere or left out. Most values come without repeats; read them as rough.

Experiments:
Assay in all cases: cell count relative to DMSO control; melanoma cells; higher = more viable cells
Conditions in all cases: library dose: standard library concentration; 72 h
[1] = system: IST-MEL1
[2] = system: LB2518-MEL
[3] = system: LOXIMVI
[4] = system: MEL-HO
[5] = system: MZ2-MEL
[6] = system: MeWo
[7] = system: RPMI7951
[8] = system: RVH-421
[9] = system: SkMel28
[10] = system: SkMel2
[11] = system: SkMel30
[12] = system: SkMel5
[13] = system: UACC257
[14] = system: UACC62
[15] = system: WM115
[16] = system: WM1716
[17] = system: WM1745
[18] = system: WM3526
[19] = system: WM3619
[20] = system: WM451Lu
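Also: cells treated in 1,536-well plates, then fixed and DAPI-stained, with nuclei counted from automated high-throughput microscope images.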

Structure (SMILES): O=S(=O)(c1ccccc1)N(CC(F)(F)F)c1ccc(C(O)(C(F)(F)F)C(F)(F)F)cc1 + Cc1cc([N+](=O)[O-])ccc1NS(=O)(=O)c1cc(Cl)ccc1Cl [FH535] (first compound 7 µM, partner dose 5 µM)
- cell count [1]: 64.3%
- cell count [2]: 65.7%
- cell count [3]: 52.6%
- cell count [4]: 44.9%
- cell count [5]: 52.5%
- cell count [6]: 68.5%
- cell count [7]: 59.9%
- cell count [8]: 51.2%
- cell count [9]: 48.7%
- cell count [10]: 73.8%
- cell count [11]: 82.4%
- cell count [12]: 60.4%
- cell count [13]: 57.1%
- cell count [14]: 81.9%
- cell count [15]: 68.5%
- cell count [16]: 78.5%
- cell count [17]: 62.1%
- cell count [18]: 59.2%
- cell count [19]: 67%
- cell count [20]: 74.7%

Structure (SMILES): COc1cc2ncnc(Nc3ccc(Oc4ccccc4)cc3)c2cc1OC + c1cc(-c2cnn3cc(-c4ccc(OCCN5CCCCC5)cc4)cnc23)ccn1 [Dorsomorphin] (first compound 10 µM, partner dose 2 µM)
- cell count [1]: 80.7%
- cell count [2]: 64.1%
- cell count [3]: 60.3%
- cell count [4]: 78.6%
- cell count [5]: 43.5%
- cell count [6]: 64.8%
- cell count [7]: 37.6%
- cell count [8]: 90.8%
- cell count [9]: 51.8%
- cell count [10]: 80.6%
- cell count [11]: 75.9%
- cell count [12]: 51.7%
- cell count [13]: 49.7%
- cell count [14]: 64.5%
- cell count [15]: 44.9%
- cell count [16]: 67.3%
- cell count [17]: 56.3%
- cell count [18]: 65.5%
- cell count [19]: 56.2%
- cell count [20]: 64.7%

Structure (SMILES): Cc1cc([N+](=O)[O-])ccc1NS(=O)(=O)c1cc(Cl)ccc1Cl + COc1cc(N2CCC(N3CCN(C)CC3)CC2)ccc1Nc1ncc(Cl)c(Nc2ccccc2S(=O)(=O)C(C)C)n1 [NVP-TAE684] (first compound 5 µM, partner dose 0.4 µM)
- cell count [1]: 63.3%
- cell count [2]: 145%
- cell count [3]: 113%
- cell count [4]: 51.1%
- cell count [5]: 20.2%
- cell count [6]: 74.1%
- cell count [7]: 108%
- cell count [8]: 81.7%
- cell count [9]: 55.9%
- cell count [10]: 59.4%
- cell count [11]: 81.3%
- cell count [12]: 49.4%
- cell count [13]: 65.6%
- cell count [14]: 93.3%
- cell count [15]: 69.1%
- cell count [16]: 5.71%
- cell count [17]: 59.4%
- cell count [18]: 65.3%
- cell count [19]: 65.8%
- cell count [20]: 87.6%

Structure (SMILES): COC(=O)c1sccc1S(=O)(=O)Nc1ccc(Nc2ccccc2)cc1OC + COc1ccc2c(c1)CCC1C2CCC2(C)C(NCCCCCCN3C(=O)C=CC3=O)CCC12 [U73122] (first compound 5 µM, partner dose 2 µM)
- cell count [1]: 114%
- cell count [2]: 119%
- cell count [3]: 94.9%
- cell count [4]: 101%
- cell count [5]: 90.9%
- cell count [6]: 49.9%
- cell count [7]: 37.7%
- cell count [8]: 88.1%
- cell count [9]: 112%
- cell count [10]: 95.4%
- cell count [11]: 83.8%
- cell count [12]: 86.1%
- cell count [13]: 99.7%
- cell count [14]: 59.4%
- cell count [15]: 78.2%
- cell count [16]: 76.4%
- cell count [17]: 85.9%
- cell count [18]: 95.2%
- cell count [19]: 79.6%
- cell count [20]: 116%

Structure (SMILES): COc1ccc2c(c1)CCC1C2CCC2(C)C(NCCCCCCN3C(=O)C=CC3=O)CCC12 (stereo not given) + O=S(=O)(c1ccccc1)N(CC(F)(F)F)c1ccc(C(O)(C(F)(F)F)C(F)(F)F)cc1 [T0901317] (first compound 2 µM, partner dose 7 µM)
- cell count [1]: 95.5%
- cell count [2]: 118%
- cell count [3]: 90.6%
- cell count [4]: 94.9%
- cell count [5]: 82.5%
- cell count [6]: 75.7%
- cell count [7]: 59.2%
- cell count [8]: 65.2%
- cell count [9]: 114%
- cell count [10]: 109%
- cell count [11]: 79.9%
- cell count [12]: 63%
- cell count [13]: 75.6%
- cell count [14]: 74.3%
- cell count [15]: 85.3%
- cell count [16]: 64.9%
- cell count [17]: 65.4%
- cell count [18]: 80.3%
- cell count [19]: 69%
- cell count [20]: 76.1%

Structure (SMILES): COC(=O)c1sccc1S(=O)(=O)Nc1ccc(Nc2ccccc2)cc1OC + COc1cc(N2CCC(N3CCN(C)CC3)CC2)ccc1Nc1ncc(Cl)c(Nc2ccccc2S(=O)(=O)C(C)C)n1 [NVP-TAE684] (first compound 5 µM, partner dose 0.4 µM)
- cell count [1]: 110%
- cell count [2]: 90.4%
- cell count [3]: 114%
- cell count [4]: 97.9%
- cell count [5]: 79.3%
- cell count [6]: 74.2%
- cell count [7]: 99.1%
- cell count [8]: 85.2%
- cell count [9]: 73.7%
- cell count [10]: 66.3%
- cell count [11]: 98.2%
- cell count [12]: 62.5%
- cell count [13]: 83.1%
- cell count [14]: 63.8%
- cell count [15]: 78.4%
- cell count [16]: 77.3%
- cell count [17]: 56.3%
- cell count [18]: 69.8%
- cell count [19]: 95.9%
- cell count [20]: 80.6%

Structure (SMILES): COC(=O)c1sccc1S(=O)(=O)Nc1ccc(Nc2ccccc2)cc1OC + CCCCCCCCCCCC1=C(O)C(=O)C=C(O)C1=O [Embelin] (first compound 5 µM, partner dose 6 µM)
- cell count [1]: 72.7%
- cell count [2]: 109%
- cell count [3]: 126%
- cell count [4]: 69.8%
- cell count [5]: 85.7%
- cell count [6]: 114%
- cell count [7]: 84.3%
- cell count [8]: 83.8%
- cell count [9]: 86.5%
- cell count [10]: 91.4%
- cell count [11]: 93.9%
- cell count [12]: 124%
- cell count [13]: 82.8%
- cell count [14]: 96.4%
- cell count [15]: 101%
- cell count [16]: 93.5%
- cell count [17]: 102%
- cell count [18]: 127%
- cell count [19]: 64.8%
- cell count [20]: 86.8%

Structure (SMILES): COc1ccc(-c2ccc3c(N4CCOCC4)nc(N4C[C@@H](C)O[C@@H](C)C4)nc3n2)cc1CO + Oc1cc(-c2nc(-c3ccccc3)[nH]c2-c2ccncc2)ccc1Cl [L779450] (first compound 0.1 µM, partner dose 1 µM)
- cell count [1]: 86.3%
- cell count [2]: 85.4%
- cell count [3]: 97.7%
- cell count [4]: 70.3%
- cell count [5]: 60.1%
- cell count [6]: 69.2%
- cell count [7]: 80.5%
- cell count [8]: 10.4%
- cell count [9]: 47.1%
- cell count [10]: 23%
- cell count [11]: 73%
- cell count [12]: 62.9%
- cell count [13]: 91.6%
- cell count [14]: 72.2%
- cell count [15]: 56.1%
- cell count [16]: 88%
- cell count [17]: 58.3%
- cell count [18]: 50%
- cell count [19]: 64.2%
- cell count [20]: 55.8%
